Results taken from PubChem BioAssay AID488969 (Vanderbilt High Throughput Screening Facility, 2010).
In all, about 110,000 compounds were measured (“z-score”: median about -0.1, highest 2% from about 2 on). Some of the results follow. The source made the active and inactive calls.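 How the source made its calls: active means z-score in the third read window above 3 or below -3; inactive means the rest.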

These compounds were tested against Metabotropic glutamate receptor 8 (Rattus norvegicus) (UniProt P70579) (assay: mGluR8 Gi/Go-coupled signaling modulation – cell-based, rat, thallium flux, HTS, primary screen (AID 488969)). Settings: HEK293 rat mGluR8, GIRK (G protein-gated inwardly rectifying potassium channel) thallium flux, FluoZin2; at 10 µM; stronger effect = higher value; submaximal glutamate (EC20) added with thallium.
Sequence of UniProt P70579 (P70579 whole entry, looked up): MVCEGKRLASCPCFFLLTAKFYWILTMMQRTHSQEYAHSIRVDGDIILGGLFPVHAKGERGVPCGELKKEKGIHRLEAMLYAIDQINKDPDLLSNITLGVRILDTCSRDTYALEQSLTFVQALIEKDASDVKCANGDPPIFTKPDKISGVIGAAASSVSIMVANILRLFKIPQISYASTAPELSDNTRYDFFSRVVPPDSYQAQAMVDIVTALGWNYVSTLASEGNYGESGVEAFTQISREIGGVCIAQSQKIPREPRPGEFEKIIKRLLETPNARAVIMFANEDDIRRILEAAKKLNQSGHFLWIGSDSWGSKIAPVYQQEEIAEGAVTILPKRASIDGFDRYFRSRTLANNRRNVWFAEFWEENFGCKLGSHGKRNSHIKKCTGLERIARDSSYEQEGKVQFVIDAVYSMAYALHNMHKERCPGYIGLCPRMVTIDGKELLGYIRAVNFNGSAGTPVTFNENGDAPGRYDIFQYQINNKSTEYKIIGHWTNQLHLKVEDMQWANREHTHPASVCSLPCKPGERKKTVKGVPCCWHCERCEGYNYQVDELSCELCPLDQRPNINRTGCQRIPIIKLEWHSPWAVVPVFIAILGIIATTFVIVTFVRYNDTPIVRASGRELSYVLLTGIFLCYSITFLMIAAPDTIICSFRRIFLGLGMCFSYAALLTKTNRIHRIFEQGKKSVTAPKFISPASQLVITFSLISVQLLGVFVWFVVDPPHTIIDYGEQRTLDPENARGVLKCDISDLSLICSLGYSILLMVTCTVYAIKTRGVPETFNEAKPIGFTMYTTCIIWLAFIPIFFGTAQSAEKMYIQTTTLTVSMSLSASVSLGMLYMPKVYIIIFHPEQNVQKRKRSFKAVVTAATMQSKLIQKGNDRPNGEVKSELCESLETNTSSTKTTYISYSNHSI

**Q.** For `Cc1cc(N=Cc2cc(Br)ccc2O)no1`, which z-score is on record?
**A.** -1.2

**Q.** `COC(=O)c1cc(OC)c(OC)cc1NC(=S)Nc1cccc(Cl)c1` was tested. Which z-score did it give?
**A.** 0.731

**Q.** With `CCOC(=O)C1=C(N)n2c(s/c(=C/c3ccccc3)c2=O)=C(C(=O)OCC)C1c1ccccc1` (stereo not given) as the compound, how does the z-score read?
**A.** 0.723

**Q.** Which z-score does the source give for `O=C(c1ccco1)N1C(=O)c2cccc3cccc1c23` here?
**A.** -0.63

**Q.** For `Cc1cc(C)cc(OCC(=O)NNC(=O)CN2C(=O)c3ccccc3C2=O)c1`, which z-score is on record?
**A.** 1.83

**Q.** `CCOc1ccc(C(=O)NCC(C)CN(C)C)cc1OCC` (stereo not given) was tested. Which z-score did it give?
**A.** 0.128

**Q.** With `CCOc1ccccc1NC(=O)COC(=O)Cc1ccc(-c2ccccc2)cc1` as the compound, how does the z-score read?
**A.** -0.43

**Q.** With `CCOC(=O)c1c(SC)nc(SC)c2c1CCC2` as the compound, how does the z-score read?
**A.** -0.3

**Q.** For `COCCNC(=O)c1cc2sc3ccccc3c2s1`, which z-score is on record?
**A.** -0.125

**Q.** Which z-score does the source give for `CC(C)=C1SC(N2CCN(c3cccc(C(F)(F)F)c3)CC2)=NC1=O` here?
**A.** -0.205

**Q.** For `Cc1noc(C)c1S(=O)(=O)Nc1ccc(C(=O)N2CCCCC2)cc1`, which z-score is on record?
**A.** -0.2

**Q.** With `COc1ccc(CNC(=O)C2CC=CCC2C(=O)O)cc1OC` (stereo not given) as the compound, how does the z-score read?
**A.** -0.532

**Q.** Which z-score does the source give for `CCc1ccc(N(C(=O)c2ccco2)C(C(=O)NC2CCCC2)c2ccco2)cc1` (stereo not given) here?
**A.** -1.06

**Q.** How did the z-score turn out when `CCCCCC1CC(CC(=O)Nc2ccc([N+](=O)[O-])cc2)C(=O)O1` (stereo not given) was run?
**A.** 0.574

**Q.** How did the z-score turn out when `CC(c1ccccc1)C1CC(=O)N(c2ccc(C(=O)O)cc2)C1=O` (stereo not given) was run?
**A.** -0.795

**Q.** `O=C1Nc2ccccc2S/C1=C/Nc1cccc(Cl)c1` was tested. Which z-score did it give?
**A.** -0.29

**Q.** With `Cc1ccc(NC(=O)COC(=O)c2ccc3c(c2)NC(=O)C2CCCN32)cc1C` (stereo not given) as the compound, how does the z-score read?
**A.** -0.301

**Q.** Which z-score does the source give for `N#CCSc1nc2c(cc1C#N)CCCCCC2` here?
**A.** -0.538

**Q.** How did the z-score turn out when `Clc1ccc(SCCn2cncn2)cc1` was run?
**A.** -0.181

**Q.** For `C/C(=N\O)c1ccc2c3ccccc3n(C)c2c1`, which z-score is on record?
**A.** 0.769

**Q.** With `COc1ccc(-c2nc(C#N)c(NCCc3ccccc3)o2)cc1` as the compound, how does the z-score read?
**A.** -0.307

**Q.** With `N#C/C(=C/c1ccc(N2CCOCC2)o1)c1nc2ccccc2[nH]1` as the compound, how does the z-score read?
**A.** active: -3.93

**Q.** For `O=C(O)C1CC1C(=O)N1CCN(c2ccc(Cl)c(Cl)c2)CC1` (stereo not given), which z-score is on record?
**A.** -0.173

**Q.** With `Nc1nc2n(n1)C(c1cccs1)CC(c1ccc(F)cc1)N2` (stereo not given) as the compound, how does the z-score read?
**A.** active: 6.13

**Q.** `CCOc1ccc(C(C)=O)cc1COC(=O)C1=COCCO1` was tested. Which z-score did it give?
**A.** -1.15

**Q.** How did the z-score turn out when `O=C(/C=C/c1ccco1)NC(=S)Nc1nc(-c2ccc(Cl)cc2)cs1` was run?
**A.** -0.111

**Q.** For `CCOC(=O)CCc1c(C)c2ccc(OCc3ccc([N+](=O)[O-])cc3)cc2oc1=O`, which z-score is on record?
**A.** -0.187

**Q.** How did the z-score turn out when `CCOc1nc(-c2ccc(Cl)cc2Cl)ccc1C#N` was run?
**A.** -0.211

**Q.** `CCOC(=O)c1cc(-c2ccccc2)n(CCC(=O)NC(C)CC)c1C` (stereo not given) was tested. Which z-score did it give?
**A.** -0.204

**Q.** With `COC(=O)c1c(NC(=O)Cc2cccs2)sc(C(=O)NC2CCCCC2)c1C` as the compound, how does the z-score read?
**A.** -2

**Q.** With `COCCOC(=O)c1c(C)nc(SCC(=O)Nc2cccc3ccccc23)c(C#N)c1-c1ccco1` as the compound, how does the z-score read?
**A.** 0.0821

**Q.** `O=C(NCc1cccs1)C1CCCN(S(=O)(=O)c2ccc(Br)s2)C1` (stereo not given) was tested. Which z-score did it give?
**A.** 0.219

**Q.** `CCOC(=O)Cc1csc(NC(=O)c2sc3nc4cc(C)ccc4cc3c2N)n1` was tested. Which z-score did it give?
**A.** 0.522

**Q.** Which z-score does the source give for `CCN1CCN(Cc2cc(=O)oc3cc(C)cc(C)c23)CC1` here?
**A.** 1.61

**Q.** How did the z-score turn out when `Cc1ccc(S(=O)(=O)N(CC(=O)NCc2ccco2)Cc2ccccc2F)cc1` was run?
**A.** -1.28

**Q.** Which z-score does the source give for `COC(=O)Cc1c(C)nc2nc(-c3ccc(OC)cc3)[nH]n2c1=O` here?
**A.** -0.0668

**Q.** Which z-score does the source give for `O=C1OC(N2CCN(c3ccccn3)CC2)c2ccccc21` (stereo not given) here?
**A.** -0.174

**Q.** Which z-score does the source give for `Clc1ncnc2scc(C3COc4ccccc4O3)c12` (stereo not given) here?
**A.** -0.228

**Q.** With `C=CCSC1=C(C#N)C(c2ccccc2OC)CC(=O)N1` (stereo not given) as the compound, how does the z-score read?
**A.** -1.09

**Q.** For `COc1ccc2[nH]c(C(O)(Cc3cccnc3)Cc3cccnc3)cc2c1`, which z-score is on record?
**A.** -0.149

**Q.** Which z-score does the source give for `O=C(NCc1ccco1)c1cccc(NC(=O)c2ccccc2)c1` here?
**A.** -0.268

**Q.** Which z-score does the source give for `S=C(N/N=C/c1ccccc1Cl)Nc1ccccc1` here?
**A.** active: 6.51

**Q.** How did the z-score turn out when `CCOc1ccc(C(=O)Nc2cc(S(=O)(=O)Nc3ccccc3Cl)ccc2N2CCOCC2)cc1` was run?
**A.** -0.333

**Q.** For `COc1ccc(/C=N/NC(=O)Nc2nonc2N)cc1`, which z-score is on record?
**A.** 0.0345

**Q.** `Cc1ccc2cc(CN(Cc3ccc(F)cc3)Cc3nnnn3C3CCCC3)c(=O)[nH]c2c1` was tested. Which z-score did it give?
**A.** 0.356

**Q.** Which z-score does the source give for `COc1ccc(CCNC(=O)C(C)OC(=O)c2ccco2)cc1OC` (stereo not given) here?
**A.** 1.68

**Q.** With `COc1cccc(OC)c1OCCCCCc1c(C)n[nH]c1C` as the compound, how does the z-score read?
**A.** -0.231

**Q.** `Cc1cnn(Cc2ccccc2)c1N` was tested. Which z-score did it give?
**A.** 0.892

**Q.** How did the z-score turn out when `CC(c1ccccc1)n1cc(C(=O)NCc2ccncc2)nn1` (stereo not given) was run?
**A.** -0.253

**Q.** For `COCCNC(=O)C(C)OC(=O)c1cc2occc2n1C` (stereo not given), which z-score is on record?
**A.** 0.254

**Q.** Which z-score does the source give for `COc1ccc(NC(=O)c2noc3c2CCC3)cc1` here?
**A.** -0.49

**Q.** With `CC(C)N1C(=S)SC2CS(=O)(=O)C=C21` (stereo not given) as the compound, how does the z-score read?
**A.** 0.775

**Q.** For `O=C(COC(=O)C1CC(=O)N(Cc2ccco2)C1)c1ccc(OC(=O)c2ccccc2)cc1` (stereo not given), which z-score is on record?
**A.** -0.101

**Q.** `COc1ccc(/C=C(/C(=O)c2cccs2)N2C=CC=CC2=C(C#N)C#N)cc1` was tested. Which z-score did it give?
**A.** -0.343

**Q.** Which z-score does the source give for `O=C(N/N=C/c1ccc(F)cc1)c1c(O)c2ccccc2[nH]c1=O` here?
**A.** 0.0579
